{"source": "PubChem BioAssay AID624202", "about": "(National Center for Advancing Translational Sciences (NCATS), 2012)", "note": "The whole screen tested about 380,000 compounds, of which about 4,000 (1.1%) were called active. The shares of active, inactive and inconclusive entries below differ from those in the screen. Calls come from the whole dose curve; as a rule, active = well fitted activation curve with a large enough effect; inconclusive = small, poorly fitted or top-dose-only effect; inactive = no such curve, though single readings can be large or run the other way. Where the call is inconclusive, the potency comes from a doubtful curve fit. Potency is the fitted concentration of half-maximal effect; tags give direction and shape of the fitted curve.", "data": [{"test": "qHTS Assay to Identify Small Molecule Activators of BRCA1 Expression; note: nearly all actives have a fitted effect of over 80% in size", "conditions": "MCF7-BRCA1-FFLuc reporter, luminescence, 48 h; activation: at 46.1 µM (top of the series), scaled: vehicle 0%, 10 µM genistein 100% unless noted", "procedure,_shortened": "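Cells: MCF7-BRCA1-FFLuc, 2000/well. Exposure: 48 h, 37 °C, 5% CO2. Read: luminescence, 15 min post-substrate. Controls: genistein 10 microM (maximal activation), DMSO (neutral).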", "values": [{"smiles": "CCN(CC)c1ccc(C(=O)OCC(=O)c2ccco2)cc1", "Potency": "active: 8.91 µM"}, {"smiles": "Cc1ccc(NC(=O)CN2CCCCCC2)cc1[N+](=O)[O-]", "Potency": "inconclusive: 14.1 µM [activator, partial curve, poor fit]"}, {"smiles": "CCOc1ccc(-c2ccc(SCc3ccccn3)nn2)cc1", "Potency": "active: 4.47 µM"}, {"smiles": "Cc1c(N)ccc(-n2nc3ccccc3n2)c1C", "Potency": "active: 11.2 µM"}, {"smiles": "CCSC1(SCC)N=C(N)C2(C#N)C(c3ccc(OC)c(OC)c3OC)C12C#N", "note": "(stereo not drawn)", "activation": "inactive: -30.5%"}, {"smiles": "O=[N+]([O-])c1ccc(Cl)c(S(=O)(=O)/N=C(/c2ccccc2)N2CCOCC2)c1", "activation": "inactive: -1.65%"}, {"smiles": "CCc1nn(CC(=O)N2CCN(Cc3ccc4c(c3)OCO4)CC2)c(=O)c2cc3occc3n12", "activation": "inactive: -25%"}, {"smiles": "O=C(Cc1ccccn1)c1ccc(Cl)cc1", "Potency": "inconclusive: 12.6 µM [activator, partial curve, poor fit]"}, {"smiles": "Cc1ccc(NC(=O)CCn2nnc3ccccc32)cc1", "Potency": "active: 11.2 µM"}, {"smiles": "Cc1cc(C(=O)COC(=O)C2=COCCO2)c(C)n1-c1ccc2c(c1)OCO2", "Potency": "inconclusive: 31.6 µM [activator, single point]"}, {"smiles": "O=C(Nc1ccc(C(=O)N2CCOCC2)cc1)Nc1cccc(Cl)c1", "Potency": "active: 11.2 µM"}, {"smiles": "CCC(=O)/C(=C(/O)c1ccccc1)c1nc2ccccc2[nH]1", "Potency": "inconclusive: 11.2 µM [activator, partial curve, poor fit]"}, {"smiles": "COc1cccc(-c2nc(-c3ccc4c(c3)NC(=O)CO4)cs2)c1", "Potency": "active: 10 µM"}, {"smiles": "O=C(NCCSc1ccccc1)c1ccccc1", "Potency": "inconclusive: 35.5 µM [activator, partial curve, poor fit]"}, {"smiles": "O=C(Nc1ccccc1)c1nnn(Cc2ccccc2)c1NC(=O)C(F)(F)F", "Potency": "inconclusive: 35.5 µM [activator, single point]"}, {"smiles": "O=C(N/N=C/c1ccco1)C1CCCC1", "activation": "inactive: 11.7%"}, {"smiles": "CN(C)/C=C1\\SC(=S)N(c2ccc(Br)cc2)C1=O", "Potency": "active: 10 µM"}, {"smiles": "Cc1ccc(-n2nnnc2SCn2nnc3ccccc3c2=O)cc1", "Potency": "inconclusive: 1.78 µM [activator, full curve, poor fit]"}, {"smiles": "CCOC(=O)c1c(C)[nH]c(C(=O)CSc2ccc(Cl)cc2)c1C", "Potency": "inconclusive: 11.2 µM [activator, partial curve, poor fit]"}, {"smiles": "CCc1ccc(NC(=O)c2cnn(-c3ccccc3)c2C)cc1", "Potency": "inconclusive: 1.58 µM [activator, partial curve, poor fit]"}, {"smiles": "COC(=O)c1ccc2c(=O)n(Cc3ccc4c(c3)OCO4)c(=S)[nH]c2c1", "activation": "inactive: -1.72%"}, {"smiles": "O=C(COC(=O)c1cccs1)c1ccc2c(c1)OCCO2", "Potency": "inconclusive: 12.6 µM [activator, partial curve, poor fit]"}, {"smiles": "O=C(Nc1cccc(O)c1)c1noc2c1CCc1ccccc1-2", "Potency": "inconclusive: 31.6 µM [activator, single point]"}, {"smiles": "O=C(OCc1ccccc1F)c1ccc2c(c1)OCCO2", "Potency": "inconclusive: 15.8 µM [activator, partial curve, poor fit]"}, {"smiles": "Cc1ccc(C(=O)Nc2nnc(CC(=O)N/N=C/c3ccncc3)s2)cc1", "Potency": "inconclusive: 31.6 µM [activator, single point]"}, {"smiles": "O=C(COC(=O)c1cccs1)c1ccccc1", "Potency": "inconclusive: 8.91 µM [activator, partial curve, poor fit]"}, {"smiles": "Cc1c(C(=O)N(C)C)sc2nc(-c3ccccn3)[nH]c(=O)c12", "activation": "inactive: 46.4%"}, {"smiles": "COc1ccc(OCCSc2ncccn2)cc1", "Potency": "inconclusive: 1.78 µM [activator, full curve, poor fit]"}, {"smiles": "CCC(=O)Oc1ccc(C(=O)Nc2ccc([N+](=O)[O-])cc2)cc1", "Potency": "inconclusive: 3.98 µM [activator, partial curve, poor fit]"}, {"smiles": "Cc1occc1C(=O)NC1CCCCCCC1", "Potency": "active: 14.1 µM"}, {"smiles": "CCn1cc(SCC(=O)N2CCOCC2)c2ccccc21", "Potency": "inconclusive: 4.47 µM [activator, partial curve, poor fit]"}, {"smiles": "O=C(NC(=S)NC1CCCCCC1)c1cncc(Br)c1", "Potency": "active: 11.2 µM"}, {"smiles": "Cc1cc(C)n(C(=O)Cn2nc([N+](=O)[O-])cc2C)n1", "activation": "inactive: -3.48%"}, {"smiles": "COC(=O)c1ccc(NC(=O)N2CCN(Cc3cc(=O)n4nc(-c5ccc(C)cc5)sc4n3)CC2)cc1", "activation": "inactive: 0%"}, {"smiles": "CCN1CCN(C(=O)CSc2ccc(C)cc2)CC1", "Potency": "inconclusive: 11.2 µM [activator, partial curve, poor fit]"}, {"smiles": "Cc1ccc(SCc2ccc(C(=O)Nc3cccnc3)cc2)cc1", "Potency": "inconclusive: 22.4 µM [activator, single point]"}, {"smiles": "Cc1oc2ccc(OCc3cccc(Cl)c3)cc2c1C(=O)O", "activation": "inactive: 8.63%"}, {"smiles": "Cc1ccc(-c2cc(-c3n[nH]c(=S)o3)c3ccccc3n2)cc1", "activation": "inactive: -4.69%"}, {"smiles": "CCOc1ccccc1N(C(=O)CNS(=O)(=O)c1ccccc1)C(CC)C(=O)NCc1ccco1", "note": "(stereo not drawn)", "activation": "inactive: -30.7%"}, {"smiles": "O=Nc1c(-c2ccccc2)cc2ccccn12", "Potency": "inconclusive: 0.562 µM [activator, full curve, poor fit]"}, {"smiles": "CCCCNC(=S)Nc1cc(S(=O)(=O)N2CCCCC2)ccc1C", "activation": "inactive: -0.973%"}, {"smiles": "CCCc1cc(C(=O)N2CCCC(C(=O)c3cc(C)c(OC)c(C)c3)C2)n(C)n1", "note": "(stereo not drawn)", "activation": "inactive: 4.76%"}, {"smiles": "Cc1ccc(C)c(NC(=O)CSc2nccn2Cc2ccco2)c1", "Potency": "inconclusive: 15.8 µM [activator, single point]"}, {"smiles": "Cc1cc(N2CCOCC2)n2ncc(-c3ccc(Cl)cc3)c2n1", "Potency": "inconclusive: 1.58 µM [activator, partial curve, poor fit]"}, {"smiles": "Cc1c(C(=O)Nc2ccc3c(c2)OCCO3)oc2ccc(Br)cc12", "Potency": "inconclusive: 7.94 µM [activator, partial curve, poor fit]"}, {"smiles": "CN=C(c1ccc(C)cc1)n1c(=S)nc(-c2ccc(C)cc2)n(C)c1=S", "Potency": "inconclusive: 35.5 µM [activator, single point]"}, {"smiles": "O=C(Nc1nccs1)c1ccc2c(=O)n3c(nc2c1)CCCCC3", "Potency": "inconclusive: 2.82 µM [activator, full curve, poor fit]"}, {"smiles": "CN(C)/C=N/c1ncc(C(=O)c2ccccc2)s1", "Potency": "active: 5.62 µM"}]}]}
